The text below walks through data of the supplement of paper PMC4604168 (melanoma cell lines).

The list shows a part of the results. Repeats are few or missing, and single values can be far off.
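Also: cell number obtained by counting DAPI-stained nuclei in high-throughput microscope images with image analysis software, screen run in 1,536-well plates.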

This experiment deals with IST-MEL1. Put plainly: cell count relative to DMSO control; melanoma cells; higher = more viable cells. The settings on record: library dose: low library concentration; 72 h.
In turn, `OCc1c[nH]c2ccccc12` [Indole-3-carbinol] + COCC[n+]1c2c(n(Cc3cnccn3)c1C)C(=O)c1ccccc1C2=O [YM155] (first compound 0.8 µM, partner dose 0.0004 µM) had a cell count of 102%. In the case of `OCc1c[nH]c2ccccc12` [Indole-3-carbinol] + C[C@]1(c2nc3c(C(N)=O)cccc3[nH]2)CCCN1 [Veliparib] (first compound 0.8 µM, partner dose 1.4 µM) it was 99.9%; in that of `OCc1c[nH]c2ccccc12` [Indole-3-carbinol] + C#Cc1cccc(Nc2ncnc3cc(OCCOC)c(OCCOC)cc23)c1 [erlotinib] (first compound 0.8 µM, partner dose 0.8 µM), 103%. The molecule `C#Cc1cccc(Nc2ncnc3cc(OCCOC)c(OCCOC)cc23)c1` [erlotinib] + Cn1nnc2c(C(N)=O)ncn2c1=O [temozolomide] (first compound 0.8 µM, partner dose 2 µM) showed a cell count of 101%. `C#Cc1cccc(Nc2ncnc3cc(OCCOC)c(OCCOC)cc23)c1` [erlotinib] + Cc1nc(Nc2ncc(C(=O)Nc3c(C)cccc3Cl)s2)cc(N2CCN(CCO)CC2)n1 [dasatanib] (first compound 0.8 µM, partner dose 0.004 µM) displayed a cell count of 93%.

Consider `Cn1c(Nc2ccc(C(F)(F)F)cc2)nc2cc(Oc3ccnc(-c4ncc(C(F)(F)F)[nH]4)c3)ccc21` + Cn1nnc2c(C(N)=O)ncn2c1=O [temozolomide] (first compound 0.08 µM, partner dose 2 µM), for which the cell count worked out at 77.6%. To `COCC[n+]1c2c(n(Cc3cnccn3)c1C)C(=O)c1ccccc1C2=O` + C[C@]1(c2nc3c(C(N)=O)cccc3[nH]2)CCCN1 [Veliparib] (first compound 0.0004 µM, partner dose 1.4 µM) belongs 89.6%. In the case of `OCc1c[nH]c2ccccc12` [Indole-3-carbinol] + COc1cc(Nc2ncc(F)c(Nc3ccc4c(n3)NC(=O)C(C)(C)O4)n2)cc(OC)c1OC [Tamatinib] (first compound 0.8 µM, partner dose 0.4 µM) it was 89.6%; in that of `Clc1ccc(Nc2nnc(Cc3ccncc3)c3ccccc23)cc1` [vatalanib] + C[C@@H]1CCN(C(=O)CC#N)C[C@@H]1N(C)c1ncnc2[nH]ccc12 [CP690550] (first compound 2 µM, partner dose 1 µM), 96%; in that of `C#Cc1cccc(Nc2ncnc3cc(OCCOC)c(OCCOC)cc23)c1` [erlotinib] + COCC[n+]1c2c(n(Cc3cnccn3)c1C)C(=O)c1ccccc1C2=O [YM155] (first compound 0.8 µM, partner dose 0.0004 µM), 88.3%. In the case of `Clc1ccc(Nc2nnc(Cc3ccncc3)c3ccccc23)cc1` [vatalanib] + COCC[n+]1c2c(n(Cc3cnccn3)c1C)C(=O)c1ccccc1C2=O [YM155] (first compound 2 µM, partner dose 0.0004 µM), the cell count is 92.8%. To `OCc1c[nH]c2ccccc12` [Indole-3-carbinol] + COc1ccc(Cl)c(Nc2nc3ccccc3nc2NS(=O)(=O)c2cccc(NC(=O)C(C)(C)N)c2)c1 [XL147] (first compound 0.8 µM, partner dose 0.8 µM) belongs 102%.

Consider `Nc1cccc2c1CN(C1CCC(=O)NC1=O)C2=O` (stereo not given) [lenalidomide] + C[C@]1(c2nc3c(C(N)=O)cccc3[nH]2)CCCN1 [Veliparib] (first compound 1 µM, partner dose 1.4 µM), for which the cell count was 101%. Take `COCC[n+]1c2c(n(Cc3cnccn3)c1C)C(=O)c1ccccc1C2=O` + O=C(CCCCCCC(=O)Nc1ccccc1)NO [vorinostat] (first compound 0.0004 µM, partner dose 0.08 µM): the cell count is 81.3%. As to `OCc1c[nH]c2ccccc12` [Indole-3-carbinol] + Cn1c(Nc2ccc(C(F)(F)F)cc2)nc2cc(Oc3ccnc(-c4ncc(C(F)(F)F)[nH]4)c3)ccc21 [CHIR265] (first compound 0.8 µM, partner dose 0.08 µM), the cell count amounted to 93.1%.

Take `COCC[n+]1c2c(n(Cc3cnccn3)c1C)C(=O)c1ccccc1C2=O` + Nc1cccc2c1CN(C1CCC(=O)NC1=O)C2=O [lenalidomide] (first compound 0.0004 µM, partner dose 1 µM): the cell count is 97.5%. To `COCC[n+]1c2c(n(Cc3cnccn3)c1C)C(=O)c1ccccc1C2=O` + Cn1nnc2c(C(N)=O)ncn2c1=O [temozolomide] (first compound 0.0004 µM, partner dose 2 µM) belongs 63.9%; to `Clc1ccc(Nc2nnc(Cc3ccncc3)c3ccccc23)cc1` [vatalanib] + COc1ccc(Cl)c(Nc2nc3ccccc3nc2NS(=O)(=O)c2cccc(NC(=O)C(C)(C)N)c2)c1 [XL147] (first compound 2 µM, partner dose 0.8 µM), 93.8%; to `Cn1c(Nc2ccc(C(F)(F)F)cc2)nc2cc(Oc3ccnc(-c4ncc(C(F)(F)F)[nH]4)c3)ccc21` + C[C@@H]1CCN(C(=O)CC#N)C[C@@H]1N(C)c1ncnc2[nH]ccc12 [CP690550] (first compound 0.08 µM, partner dose 1 µM), 95.2%. `Clc1ccc(Nc2nnc(Cc3ccncc3)c3ccccc23)cc1` [vatalanib] + Cc1nc(Nc2ncc(C(=O)Nc3c(C)cccc3Cl)s2)cc(N2CCN(CCO)CC2)n1 [dasatanib] (first compound 2 µM, partner dose 0.004 µM): the cell count was 81.9%. In turn, `C#Cc1cccc(Nc2ncnc3cc(OCCOC)c(OCCOC)cc23)c1` [erlotinib] + Nc1cccc2c1CN(C1CCC(=O)NC1=O)C2=O [lenalidomide] (first compound 0.8 µM, partner dose 1 µM) had a cell count of 102%. The molecule `Clc1ccc(Nc2nnc(Cc3ccncc3)c3ccccc23)cc1` [vatalanib] + Cn1nnc2c(C(N)=O)ncn2c1=O [temozolomide] (first compound 2 µM, partner dose 2 µM) had a cell count of 91.4%.

`Clc1ccc(Nc2nnc(Cc3ccncc3)c3ccccc23)cc1` [vatalanib] + C[C@]1(c2nc3c(C(N)=O)cccc3[nH]2)CCCN1 [Veliparib] (first compound 2 µM, partner dose 1.4 µM): the cell count is 96.8%.

In the case of `C#Cc1cccc(Nc2ncnc3cc(OCCOC)c(OCCOC)cc23)c1` [erlotinib] + C[C@]1(c2nc3c(C(N)=O)cccc3[nH]2)CCCN1 [Veliparib] (first compound 0.8 µM, partner dose 1.4 µM), the cell count worked out at 86.7%. In the case of `OCc1c[nH]c2ccccc12` [Indole-3-carbinol] + Cn1nnc2c(C(N)=O)ncn2c1=O [temozolomide] (first compound 0.8 µM, partner dose 2 µM) it was 93.5%; in that of `Cn1c(Nc2ccc(C(F)(F)F)cc2)nc2cc(Oc3ccnc(-c4ncc(C(F)(F)F)[nH]4)c3)ccc21` + Nc1cccc2c1CN(C1CCC(=O)NC1=O)C2=O [lenalidomide] (first compound 0.08 µM, partner dose 1 µM), 95.1%; in that of `Nc1cccc2c1CN(C1CCC(=O)NC1=O)C2=O` (stereo not given) [lenalidomide] + Cn1nnc2c(C(N)=O)ncn2c1=O [temozolomide] (first compound 1 µM, partner dose 2 µM), 97%. To `O=C(CCCCCCC(=O)Nc1ccccc1)NO` [vorinostat] + COc1cc(Nc2ncc(F)c(Nc3ccc4c(n3)NC(=O)C(C)(C)O4)n2)cc(OC)c1OC [Tamatinib] (first compound 0.08 µM, partner dose 0.4 µM) belongs 100%; to `Cn1c(Nc2ccc(C(F)(F)F)cc2)nc2cc(Oc3ccnc(-c4ncc(C(F)(F)F)[nH]4)c3)ccc21` + Cn1cncc1[C@@](N)(c1ccc(Cl)cc1)c1ccc2c(c1)c(-c1cccc(Cl)c1)cc(=O)n2C [tipifarnib] (first compound 0.08 µM, partner dose 0.01 µM), 81%; to `C#Cc1cccc(Nc2ncnc3cc(OCCOC)c(OCCOC)cc23)c1` [erlotinib] + Cn1c(Nc2ccc(C(F)(F)F)cc2)nc2cc(Oc3ccnc(-c4ncc(C(F)(F)F)[nH]4)c3)ccc21 [CHIR265] (first compound 0.8 µM, partner dose 0.08 µM), 89.1%. `Clc1ccc(Nc2nnc(Cc3ccncc3)c3ccccc23)cc1` [vatalanib] + C#Cc1cccc(Nc2ncnc3cc(OCCOC)c(OCCOC)cc23)c1 [erlotinib] (first compound 2 µM, partner dose 0.8 µM) registered a cell count of 85.4%. With `OCc1c[nH]c2ccccc12` [Indole-3-carbinol] + Nc1cccc2c1CN(C1CCC(=O)NC1=O)C2=O [lenalidomide] (first compound 0.8 µM, partner dose 1 µM), the cell count was 109%.

`Clc1ccc(Nc2nnc(Cc3ccncc3)c3ccccc23)cc1` [vatalanib] + Cn1c(Nc2ccc(C(F)(F)F)cc2)nc2cc(Oc3ccnc(-c4ncc(C(F)(F)F)[nH]4)c3)ccc21 [CHIR265] (first compound 2 µM, partner dose 0.08 µM) came in with a cell count of 81.6%. To `Cn1c(Nc2ccc(C(F)(F)F)cc2)nc2cc(Oc3ccnc(-c4ncc(C(F)(F)F)[nH]4)c3)ccc21` + C[C@]1(c2nc3c(C(N)=O)cccc3[nH]2)CCCN1 [Veliparib] (first compound 0.08 µM, partner dose 1.4 µM) belongs 98.9%; to `OCc1c[nH]c2ccccc12` [Indole-3-carbinol] + Cc1nc(Nc2ncc(C(=O)Nc3c(C)cccc3Cl)s2)cc(N2CCN(CCO)CC2)n1 [dasatanib] (first compound 0.8 µM, partner dose 0.004 µM), 87.6%.
